Assay results from PubChem BioAssay AID596 (National Center for Advancing Translational Sciences (NCATS), 2007).
Hit rate of the full screen: of about 71,000 compounds, about 1,400 (2%) were called active. Not shown: some 3% with an inconclusive outcome. The call rests on the fitted dose curve; in most records, active means well fitted curve in the direction sought with a large enough effect; inconclusive means small, poorly fitted or top-dose-only effect; inactive means no such curve, though single readings can be large or run the other way. Where a structure was tested more than once in an assay, its records may differ in their call. Some entries of the source have several records that differ or are many. The list is limited to them. An entry can have further records. Values that stand side by side repeat one measurement in other runs, samples, wells, individuals or studies. Marks such as (2×) stand for listed records that agree.

biological target: Microtubule-associated protein tau (Homo sapiens) (UniProt P10636); assay: qHTS Assay for Tau Filament Binding; settings: recombinant tau filaments, thioflavin S fluorescence, 15 h, filaments grown with octadecylsulfate alongside compound; series mostly up to 57.1 µM;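 further: actives lower thioflavin S fluorescence by blocking filaments or displacing dye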
Sequence of UniProt P10636 (P10636 whole entry, looked up): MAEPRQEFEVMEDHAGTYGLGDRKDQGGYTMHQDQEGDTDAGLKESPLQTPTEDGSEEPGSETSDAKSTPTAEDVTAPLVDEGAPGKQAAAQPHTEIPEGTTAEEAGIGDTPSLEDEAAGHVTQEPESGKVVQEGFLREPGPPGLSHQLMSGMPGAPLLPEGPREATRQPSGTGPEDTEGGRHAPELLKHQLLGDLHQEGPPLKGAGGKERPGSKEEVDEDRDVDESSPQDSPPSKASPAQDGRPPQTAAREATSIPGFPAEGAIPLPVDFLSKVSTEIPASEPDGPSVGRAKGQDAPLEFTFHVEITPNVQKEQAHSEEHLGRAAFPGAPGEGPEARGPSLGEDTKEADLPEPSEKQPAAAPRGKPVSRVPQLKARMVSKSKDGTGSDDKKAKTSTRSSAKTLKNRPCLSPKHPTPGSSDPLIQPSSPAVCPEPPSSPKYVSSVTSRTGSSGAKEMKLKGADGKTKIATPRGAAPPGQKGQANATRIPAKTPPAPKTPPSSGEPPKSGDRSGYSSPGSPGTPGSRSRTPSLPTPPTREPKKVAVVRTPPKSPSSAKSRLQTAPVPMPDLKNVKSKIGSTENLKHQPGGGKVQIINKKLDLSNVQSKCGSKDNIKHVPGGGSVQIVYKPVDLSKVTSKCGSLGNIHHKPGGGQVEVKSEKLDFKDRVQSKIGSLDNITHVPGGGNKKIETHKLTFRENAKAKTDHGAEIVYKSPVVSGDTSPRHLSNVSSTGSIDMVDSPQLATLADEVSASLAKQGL
Excerpt: NIH Molecular Libraries Screening Centers Network [MLSCN]
NIH Chemical Genomics Center [NCGC]
Assay Provider: Jeffrey A. Kuret, Ohio State University
Tau monomers form filaments in vitro in the presence of anionic detergents or fatty acids. The dye Thioflavine S (ThS) binds to tau filaments and upon binding, increases in fluorescence several fold. Small molecules that displace ThS binding or prevent filament binding are identified by a reduction in ThS fluorescence. This assay used histidine-tagged, recombinant human tau protein containing the products of exons 2, 3, and 10 that was provided by Jeff Kuret, Ohio State University. To form filaments, 1 uM tau was incubated with 30 uM sodium octadecylsulfate (ODS) in reagent buffer (10 uM thioflavine S, 5 mM 1,4-dithioerythreitol (DTT), 100 mM sodium chloride, 10 mM HEPES pH 7.4) for 15 hrs at 37 C.
NCGC Assay Protocol Summary:
Assay Steps. Two uL/well of 2 uM tau in reagent buffer (10 uM thioflavine S, 5 mM DTT, 100 mM sodium chloride, 10 mM HEPES pH 7.4) was dispensed into solid black 1536-well plates. Twenty-three nL compound was transferred to the assay plate after which 2 uL/well of 60 uM ODS in reagent buffer was dispensed for a final assay volume of 4 uL /well. Following 15 hours of incubation at 37 C, fluorescence was detected by an Envision (Perkin Elmer) using 450/8 nm excitation and 510/23 nm emission. […]
On the % scale 0 is the no-effect control and ±100 the full control effect; potency means the concentration at half of the fitted maximal effect.

Row | Structure (SMILES) | Potency
1 | CNCC[C@H](Oc1ccc(C(F)(F)F)cc1)c1ccccc1 | inactive (3×) and active: 10 µM [separate samples]
